Laboratory results from the supplement of paper PMC8728848.
This is one part of the list.

Assays:
Experiment in all cases: glycan array binding signal (z-score within array); higher = stronger binding
Conditions in all cases: glycan notation: IUPAC condensed, linker removed
[1] = molecular target: Neu5Ac(a2-3)Gal(b1-3)GlcNAc6S
Method in brief: (§1)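 Columns mapping to the same glycan were averaged after glycan names were converted to IUPAC-condensed notation. The data come from 3228 arrays in the Consortium for Functional Glycomics database, limited to those with an available protein sequence. Binding is reported as a within-array Z-score averaged across arrays of one protein sequence and across linkers.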

[2] = molecular target: Neu5Ac(a2-3)Gal(b1-3)[Fuc(a1-4)]GlcNAc
Method in brief: as §1

[3] = molecular target: Neu5Ac(a2-3)Gal(b1-3)[Fuc(a1-4)]GlcNAc(b1-3)Gal(b1-3)[Fuc(a1-4)]GlcNAc
Method in brief: as §1

[4] = molecular target: Neu5Ac(a2-3)Gal(b1-3)[Fuc(a1-4)]GlcNAc(b1-3)Gal(b1-4)[Fuc(a1-3)]GlcNAc
Method in brief: as §1

[5] = molecular target: Neu5Ac(a2-3)Gal(b1-3)[GlcNAc(b1-6)]GalNAc
Method in brief: as §1

[6] = molecular target: Neu5Ac(a2-3)Gal(b1-3)[Neu5Ac(a2-3)Gal(b1-4)]GlcNAc
Method in brief: as §1

[7] = molecular target: Neu5Ac(a2-3)Gal(b1-3)[Neu5Ac(a2-6)]GalNAc
Method in brief: as §1

[8] = molecular target: Neu5Ac(a2-3)Gal(b1-3)[Neu5Ac(a2-6)]GlcNAc(b1-3)[Fuc(a1-3)[Gal(b1-4)]GlcNAc(b1-6)]Gal(b1-4)Glc
Method in brief: as §1

[9] = molecular target: Neu5Ac(a2-3)Gal(b1-3)]Neu5Ac(a2-3)Gal(b1-4)]GlcNAc
Method in brief: as §1

[10] = molecular target: Neu5Ac(a2-3)Gal(b1-4)Glc
Method in brief: as §1

[11] = molecular target: Neu5Ac(a2-3)Gal(b1-4)GlcNAc
Method in brief: as §1

[12] = molecular target: Neu5Ac(a2-3)Gal(b1-4)GlcNAc(b1-2)Man
Method in brief: as §1

[13] = molecular target: Neu5Ac(a2-3)Gal(b1-4)GlcNAc(b1-2)Man(a1-3)[GlcNAc(b1-4)][Neu5Ac(a2-3)Gal(b1-4)GlcNAc(b1-2)Man(a1-6)]Man(b1-4)GlcNAc(b1-4)GlcNAc
Method in brief: as §1

[14] = molecular target: Neu5Ac(a2-3)Gal(b1-4)GlcNAc(b1-2)Man(a1-3)[Neu5Ac(a2-3)Gal(b1-4)GlcNAc(b1-2)Man(a1-6)]Man(b1-4)GlcNAc(b1-4)GlcNAc
Method in brief: as §1

[15] = molecular target: Neu5Ac(a2-3)Gal(b1-4)GlcNAc(b1-2)Man(a1-3)[Neu5Ac(a2-3)Gal(b1-4)GlcNAc(b1-2)Man(a1-6)]Man(b1-4)GlcNAc(b1-4)[Fuc(a1-6)]GlcNAc
Method in brief: as §1

[16] = molecular target: Neu5Ac(a2-3)Gal(b1-4)GlcNAc(b1-2)Man(a1-3)[Neu5Ac(a2-6)Gal(b1-4)GlcNAc(b1-2)Man(a1-6)]Man(b1-4)GlcNAc(b1-4)GlcNAc
Method in brief: as §1

[17] = molecular target: Neu5Ac(a2-3)Gal(b1-4)GlcNAc(b1-2)[Neu5Ac(a2-3)Gal(b1-4)GlcNAc(b1-4)]Man(a1-3)[GlcNAc(b1-4)][Neu5Ac(a2-3)Gal(b1-4)GlcNAc(b1-2)[Neu5Ac(a2-3)Gal(b1-4)GlcNAc(b1-6)]Man(a1-6)]Man(b1-4)GlcNAc(b1-4)GlcNAc
Method in brief: as §1

[18] = molecular target: Neu5Ac(a2-3)Gal(b1-4)GlcNAc(b1-2)[Neu5Ac(a2-3)Gal(b1-4)GlcNAc(b1-4)]Man(a1-3)[GlcNAc(b1-4)][Neu5Ac(a2-3)Gal(b1-4)GlcNAc(b1-4)Man(a1-6)]Man(b1-4)GlcNAc(b1-4)GlcNAc
Method in brief: as §1

[19] = molecular target: Neu5Ac(a2-3)Gal(b1-4)GlcNAc(b1-2)[Neu5Ac(a2-3)Gal(b1-4)GlcNAc(b1-6)]Man(a1-6)[Neu5Ac(a2-3)Gal(b1-4)GlcNAc(b1-2)Man(a1-3)]Man(b1-4)GlcNAc(b1-4)GlcNAc
Method in brief: as §1

[20] = molecular target: Neu5Ac(a2-3)Gal(b1-4)GlcNAc(b1-2)[Neu5Ac(a2-3)Gal(b1-4)GlcNAc(b1-6)]Man(a1-6)[Neu5Ac(a2-3)Gal(b1-4)GlcNAc(b1-2)Man(a1-3)][GlcNAc(b1-4)]Man(b1-4)GlcNAc(b1-4)GlcNAc
Method in brief: as §1

[21] = molecular target: Neu5Ac(a2-3)Gal(b1-4)GlcNAc(b1-3)Gal
Method in brief: as §1

[22] = molecular target: Neu5Ac(a2-3)Gal(b1-4)GlcNAc(b1-3)Gal(b1-3)GlcNAc
Method in brief: as §1

[23] = molecular target: Neu5Ac(a2-3)Gal(b1-4)GlcNAc(b1-3)Gal(b1-4)GlcNAc
Method in brief: as §1

[24] = molecular target: Neu5Ac(a2-3)Gal(b1-4)GlcNAc(b1-3)Gal(b1-4)GlcNAc(b1-2)Man(a1-3)[Neu5Ac(a2-3)Gal(b1-4)GlcNAc(b1-3)Gal(b1-4)GlcNAc(b1-2)Man(a1-6)]Man(b1-4)GlcNAc(b1-4)GlcNAc
Method in brief: as §1

[25] = molecular target: Neu5Ac(a2-3)Gal(b1-4)GlcNAc(b1-3)Gal(b1-4)GlcNAc(b1-3)Gal(b1-4)GlcNAc
Method in brief: as §1

[26] = molecular target: Neu5Ac(a2-3)Gal(b1-4)GlcNAc(b1-3)Gal(b1-4)GlcNAc(b1-3)Gal(b1-4)GlcNAc(b1-2)Man(a1-3)[Neu5Ac(a2-3)Gal(b1-4)GlcNAc(b1-3)Gal(b1-4)GlcNAc(b1-3)Gal(b1-4)GlcNAc(b1-2)Man(a1-6)]GalNAc
Method in brief: as §1

[27] = molecular target: Neu5Ac(a2-3)Gal(b1-4)GlcNAc(b1-3)Gal(b1-4)GlcNAc(b1-3)GalNAc
Method in brief: as §1

[28] = molecular target: Neu5Ac(a2-3)Gal(b1-4)GlcNAc(b1-3)Gal(b1-4)GlcNAc(b1-3)[Neu5Ac(a2-3)Gal(b1-4)GlcNAc(b1-3)Gal(b1-4)GlcNAc(b1-6)]GalNAc
Method in brief: as §1

[29] = molecular target: Neu5Ac(a2-3)Gal(b1-4)GlcNAc(b1-3)Gal(b1-4)GlcNAc(b1-6)[Gal(b1-3)]GalNAc
Method in brief: as §1

[30] = molecular target: Neu5Ac(a2-3)Gal(b1-4)GlcNAc(b1-3)Gal(b1-4)[Fuc(a1-3)]GlcNAc
Method in brief: as §1

[31] = molecular target: Neu5Ac(a2-3)Gal(b1-4)GlcNAc(b1-3)GalNAc
Method in brief: as §1

B1: XL-35 (Xenopus laevis) (protein)
chain: MLVHILLLLVTGGLSQSCDPVVIVASKNMVKQLDCDKFRNCKEIKDSNEEAQDGIYTLTSPDGISYQTFCDMTTNGGGWTLVASVHENNMAGKCTIGDRWSSQQGNRADYPEGDGNWANYNTFGSAGGATSDDYKNPGYYDIEAYNLGVWHVPNKTPLSVWRNSSLQRYRTTDGILFKHGGNLFSLYRIYPVKYGIGSCSKDSGPTVPVVYDLGSANLTASFYSPGFRSQFTPGYIQFRPINTEKAALALCPGMKMESCNVEHVCIGGGGYFPEADPRQCGDFAAYDFNGYGTKKFNSAGIEITEAAVLLFYL
For B1, which “glycan array binding signal (z-score)” value [1] is on record?
Its value is -0.218.

And the “glycan array binding signal (z-score)” value [2]?
The value was -0.204.

What about the “glycan array binding signal (z-score)” value [3] of the same binder?
Its value is 0.579.

What about the “glycan array binding signal (z-score)” value [4] of the same binder?
The value was -0.001.

And the “glycan array binding signal (z-score)” value [5]?
The value was -0.313.

What about the “glycan array binding signal (z-score)” value [6] of the same binder?
The value was -0.101.

What about the “glycan array binding signal (z-score)” value [7] of the same binder?
The value was -0.335.

What about the “glycan array binding signal (z-score)” value [8] of the same binder?
Its value is -0.257.

And the “glycan array binding signal (z-score)” value [9]?
The value was -0.341.

What about the “glycan array binding signal (z-score)” value [10] of the same binder?
Its value is -0.168.

And the “glycan array binding signal (z-score)” value [11]?
The value was -0.051.

What about the “glycan array binding signal (z-score)” value [12] of the same binder?
Its value is 0.501.

And the “glycan array binding signal (z-score)” value [13]?
Its value is -0.603.

And the “glycan array binding signal (z-score)” value [14]?
The value was -0.022.

And the “glycan array binding signal (z-score)” value [15]?
The value was -0.075.

What about the “glycan array binding signal (z-score)” value [16] of the same binder?
The value was -0.253.

What about the “glycan array binding signal (z-score)” value [17] of the same binder?
Its value is 0.015.

What about the “glycan array binding signal (z-score)” value [18] of the same binder?
Its value is -0.229.

What about the “glycan array binding signal (z-score)” value [19] of the same binder?
The value was 0.329.

And the “glycan array binding signal (z-score)” value [20]?
Its value is -0.09.

And the “glycan array binding signal (z-score)” value [21]?
Its value is -0.283.

What about the “glycan array binding signal (z-score)” value [22] of the same binder?
Its value is 0.002.

What about the “glycan array binding signal (z-score)” value [23] of the same binder?
The value was -0.116.

What about the “glycan array binding signal (z-score)” value [24] of the same binder?
Its value is 0.064.

What about the “glycan array binding signal (z-score)” value [25] of the same binder?
Its value is -0.178.

And the “glycan array binding signal (z-score)” value [26]?
Its value is 0.335.

What about the “glycan array binding signal (z-score)” value [27] of the same binder?
The value was 0.012.

What about the “glycan array binding signal (z-score)” value [28] of the same binder?
Its value is -0.256.

And the “glycan array binding signal (z-score)” value [29]?
Its value is -0.307.

And the “glycan array binding signal (z-score)” value [30]?
The value was 0.152.

And the “glycan array binding signal (z-score)” value [31]?
Its value is -0.1.
